Measured values as given in patent publication US8592383B2, “Cycloalkyl-fused tetrahydroquinolines as CRTH2 receptor modulators” (Merck Sharp & Dohme Corp., priority 2011, dated 2013).

biological target: T1, hCRTH2 (Homo sapiens, UniProt Q9Y5Y4); assay: biochemical; conditions: Ki (nM), Table A; Radioligand Binding Assay A, [3H]PGD2, HEK-hCRTH2 membranes
T1 sequence (Q9Y5Y4 1-395): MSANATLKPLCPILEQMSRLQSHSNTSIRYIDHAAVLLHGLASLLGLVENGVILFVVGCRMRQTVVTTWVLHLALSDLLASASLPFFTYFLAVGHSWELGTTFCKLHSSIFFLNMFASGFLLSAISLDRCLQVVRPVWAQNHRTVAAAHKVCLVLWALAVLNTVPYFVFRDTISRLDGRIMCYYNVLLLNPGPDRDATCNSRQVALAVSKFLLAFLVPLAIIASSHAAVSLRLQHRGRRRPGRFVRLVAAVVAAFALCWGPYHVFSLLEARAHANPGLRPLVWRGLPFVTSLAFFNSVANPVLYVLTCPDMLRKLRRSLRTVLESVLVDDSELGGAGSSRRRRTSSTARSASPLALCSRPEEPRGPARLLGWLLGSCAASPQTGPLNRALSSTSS

`O=C(O)CCC(=O)N(C1CC1)C1c2ccccc2N(C(=O)OC2Cc3ccccc3C2)C2CCCC21` (single isomer, unassigned) [22L, 4-(2,3-dihydro-1H-inden-2-yl) cis, cis-[(3-carboxy-1-oxopropyl)cyclopropylamino]-1,2,3,3a,9,9a-hexahydro-4H-cyclopenta[b]quinoline-4-carboxylate] and `O=C(O)CCC(=O)N(C1CC1)[C@@H]1c2ccc(Cl)cc2N(C(=O)OC2Cc3ccccc3C2)[C@@H]2CCC[C@@H]21` (single isomer, unassigned) [22X, 4-(2,3-dihydro-1H-inden-2-yl) cis, cis-[(3-carboxy-1-oxopropyl)cyclopropylamino]-6-chloro-1,2,3,3a,9,9a-hexahydro-4H-cyclopenta[b]quinoline-4-carboxylate] fall in the same range of Ki: 5.1 to 20 nM for the first, 5.1 to 20 nM for the second.

Compared with `O=C(O)CCC(=O)N(C1CC1)C1c2ccc(F)cc2N(C(=O)c2ccc(F)cc2)C2CCC21` (single isomer, unassigned) [17CC, 4-[cyclopropyl[cis,cis-5-fluoro-3-(4-fluorobenzoyl)-1,2,2a,3,8,8a-hexahydrocyclobuta[b]quino-lin-8-yl]amino]-4-oxobutanoic acid], `O=C(O)CCC(=O)N(C1CC1)C1c2cc(F)ccc2N(C(=O)c2ccc(SC(F)(F)F)cc2)C2CCC21` (single isomer, unassigned) [compound 167, 4-(cyclopropyl(cis, cis-6-fluoro-3-(4-((trifluoromethyl)thio)benzoyl)-1,2,2a,3,8,8a-hexahydrocyclobuta[b]quinolin-8-yl)amino)-4-oxobutanoic acid] is higher in Ki: 1 to 5 nM for the first, 5.1 to 20 nM for the second. The first binds more tightly here.

First: O=C(O)CCC(=O)N(C1CC1)C1c2cc(C(F)F)ccc2N(C(=O)OCc2ccccc2)C2CCC21 (single isomer, unassigned) [compound 156, 4-((cis, cis-3-((benzyloxy)carbonyl)-6-(difluoromethyl)-1,2,2a,3,8,8a-hexahydrocyclobuta[b]quinolin-8-yl)(cyclopropyl)amino)-4-oxobutanoic acid]
Second: C[C@H](OC(=O)N1c2ccc(F)cc2C(N(C(=O)CCC(=O)O)C2CC2)C2CCC21)c1ccccc1 (single isomer, unassigned) [compound 101]
The Ki of the first is lower: 20.1 to 200 nM for the first, 201 to 7500 nM for the second. The first binds more tightly here.

Compared with `O=C(O)CCC(=O)N[C@@H]1c2ccccc2N(C(=O)c2ccc(OC(F)(F)F)cc2)[C@@H]2CCC[C@H]12` (racemic) [compound 45, 4-[[cis,cis-2,3,3a,4,9,9a-Hexahydro-4-[4-(trifluoromethoxy)benzoyl]-1H-cyclopenta[b]quinolin-9-yl]amino]-4-oxobutanoic acid], `O=C(O)CCC(=O)N(C1CCC1)[C@@H]1c2ccccc2N(C(=O)c2ccc(OC(F)(F)F)cc2)[C@@H]2CCC[C@@H]21` (single isomer, unassigned) [17CZ, 4-[cyclobutyl[cis,cis-2,3,3a,4,9,9a-hexahydro-4-[4-(trifluoromethoxy)benzoyl]-1H-cyclopenta[b]quinolin-9-yl]amino]-4-oxobutanoic acid] is lower in Ki: 20.1 to 200 nM for the first, 5.1 to 20 nM for the second. The second binds more tightly here.

`O=C(O)CCC(=O)N(C1CC1)C1c2ccccc2N(C(=O)c2ccc(-n3cccn3)cc2)C2CCCC21` (racemic) [18D, 4-[cyclopropyl[cis,cis-2,3,3a,4,9,9a-hexahydro-4-[4-(1H-pyrazol-1-yl)benzoyl]-1H-cyclopenta[b]quinolin-9-yl]amino]-4-oxobutanoic acid] and `O=C(O)CCC(=O)N(C1CC1)C1c2ccccc2N(C(=O)c2cccc(-c3cncs3)c2)C2CCCC21` (racemic) [18G, 4-[cyclopropyl[cis,cis-2,3,3a,4,9,9a-hexahydro-4-[3-(5-thiazolyl)benzoyl]-1H-cyclopenta[b]quinolm-9-yl]amino]-4-oxobutanoic acid] fall in the same range of Ki: 5.1 to 20 nM for the first, 5.1 to 20 nM for the second.

Compared with `CCN(C(=O)CCC(=O)O)C1c2ccccc2N(C(=O)c2cc(F)c(F)c(F)c2)C2CCCC12` (single isomer, unassigned) [17AG, 4-[ethyl[cis,cis-2,3,3a,4,9,9a-hexahydro-4-(3,4,5-trifluorobenzoyl)-1H-cyclopenta[b]quinolin-9-yl]amino]-4-oxobutanoic acid], `CCN(C(=O)CCC(=O)O)C1c2ccccc2N(C(=O)c2ccc(SC(F)(F)F)cc2)C2CCC12` (single isomer, unassigned) [compound 83, 4-(ethyl(cis, cis-3-(4-(trifluoromethylthio)benzoyl)-1,2,2a,3,8,8a-hexahydrocyclobuta[b]quinolin-8-yl)amino)-4-oxobutanoic acid] is lower in Ki: 20.1 to 200 nM for the first, 1 to 5 nM for the second.

Compared with `COc1ccccc1C(=O)N1c2ccccc2C(N(C(=O)CCC(=O)O)C2CC2)C2CCCC21` (racemic) [17AM, 4-[cyclopropyl[cis,cis-2,3,3a,4,9,9a-hexahydro-4-(2-methoxybenzoyl)-1H-cyclopenta[b]quinolin-9-yl]amino]-4-oxobutanoic acid], `O=C(O)CCC(=O)N(C1CC1)C1c2ccccc2N(C(=O)c2ccc(F)cc2F)C2CCCC21` (single isomer, unassigned) [17BV, 4-[cyclopropyl[cis,cis-4-(2,4-difluorobenzoyl)-2,3,3a,4,9,9a-hexahydro-1H-cyclopenta[b]quinolin-9-yl]amino]-4-oxobutanoic acid] is lower in Ki: 20.1 to 200 nM for the first, 5.1 to 20 nM for the second.

`CC[C@@H](OC(=O)N1c2ccccc2C(N(C(=O)CCC(=O)O)C2CC2)C2CCCC21)c1ccccc1` (single isomer, unassigned) [compound 141] and `CCN(C(=O)CCC(=O)O)C1c2ccccc2N(C(=O)OC(C)c2ccccc2)C2CCCC12` (racemic) [compound 74, 4-(1-phenylethyl) cis, cis-[(3-carboxy-1-oxopropyl)ethylamino]-1,2,3,3a,9,9a-hexahydro-4H-cyclopenta[b]quinoline-4-carboxylatc] fall in the same range of Ki: 20.1 to 200 nM for the first, 20.1 to 200 nM for the second.

First: O=C(O)CCCN(CCCC(=O)O)C1c2ccccc2N(C(=O)c2ccc(OC(F)(F)F)cc2)C2CCCC12 (racemic) [compound 128, 4,4′-[[cis,cis-2,3,3a,4,9,9a-hexahydro-4-[4-(trifluoromethoxy)benzoyl]-1H-cyclopenta[b]quinolin-9-yl]imino]bisbutanoic acid]
Second: Cc1ccc2c(c1)C(N(C(=O)CCC(=O)O)C1CC1)C1CCCC1N2C(=O)c1ccc(OC(F)(F)F)cc1 (single isomer, unassigned) [compound 51, 4-[Cyclopropyl[cis,cis-2,3,3a,4,9,9a-hexahydro-7-methyl-4-[4-(trifluoromethoxy)benzoyl]-1H-cyclopenta[b]quinolin-9-yl]amino]-4-oxobutanoic acid]
The Ki of the first is higher: 201 to 7500 nM for the first, 5.1 to 20 nM for the second.

`O=C(O)CCC(=O)N(C1CC1)C1c2ccc(Cl)cc2N(C(=O)C2CCCc3ccccc32)C2CCCC21` (stereo not drawn) [17DJ, 4-[[cis,cis-6-chloro-2,3,3a,4,9,9a-hexahydro-4-[(1,2,3,4-tetrahydro-1-naphthalenyl)carbonyl]-1H-cyclopenta[b]quinolin-9-yl]cyclopropylamino]-4-oxobutanoic acid] and `O=C(O)CCC(=O)N(C1CC1)C1c2ccc(Cl)cc2N(C(=O)O[C@@H]2CCc3ccccc32)C2CCCC21` (single isomer, unassigned) [22W] fall in the same range of Ki: 5.1 to 20 nM for the first, 5.1 to 20 nM for the second.

`CN(CC(=O)O)C(=O)N(C1CC1)C1c2ccccc2N(C(=O)c2cccs2)C2CCCC21` (single isomer, unassigned) [35J, N-[[cyclopropyl[cis, cis-2,3,3a,4,9,9a-hexahydro-4-(2-thienylcarbonyl)-1H-cyclopenta[b]quinolin-9-yl]amino]carbonyl]-N-methylglycine] and `O=C(O)COC(=O)N(C1CC1)[C@@H]1c2ccccc2N(C(=O)c2cc(F)cc(F)c2)[C@@H]2CCC[C@@H]21` (single isomer, unassigned) [32R, [[[cyclopropyl[cis, cis-4-(3,5-difluorobenzoyl)-2,3,3a-4,9,9a-hexahydro-1H-cyclopenta[b]quinolin-9-yl]amino]carbonyl]oxy]acetic acid] fall in the same range of Ki: 5.1 to 20 nM for the first, 5.1 to 20 nM for the second.

`O=C(O)CCC(=O)N(C1CC1)C1c2cc(F)c(Cl)cc2N(C(=O)c2ccc(OC(F)(F)F)cc2)C2CCCC21` (single isomer, unassigned) [17BX, 4-[[cis,cis-6-chloro-7-fluoro-2,3,3a,4,9,9a-hexahydro-4-[4-(trifluoromethoxy)benzoyl]-1H-cyclopenta[b]quinolin-9-yl]cyclopropylamino]-4-oxobutanoic acid] and `O=C(O)CCC(=O)N(C1CC1)C1c2cc(F)ccc2N(C(=O)c2ccc(OC(F)(F)F)cc2)C2CCCC21` (single isomer, unassigned) [compound 134, 4-[cyclopropyl[cis, cis-7-fluoro-2,3,3a,4,9,9a-hexahydro-4-[4-(trifluoromethoxy)benzoyl]-1H-cyclopenta[b]quinolin-9-yl]amino]-4-oxobutanoic acid] fall in the same range of Ki: 201 to 7500 nM for the first, 201 to 7500 nM for the second.

First: CCN(C(=O)CCC(=O)O)C1c2ccccc2N(C(=O)c2ccc(-c3ccccc3)cc2)C2CCC12 (single isomer, unassigned) [compound 80, 4-((cis, cis-3-(biphenylcarbonyl)-1,2,2a,3,8,8a-hcxahydrocyclobuta[b]quinolin-8-yl)(ethyl)amino)-4-oxobutanoic acid]
Second: O=C(O)CCC(=O)N(C1CC1)[C@H]1c2cc(F)ccc2N(C(=O)c2cccc(F)c2)[C@H]2CCC[C@H]21 (single isomer, unassigned) [17DG]
The Ki of the first is lower: 5.1 to 20 nM for the first, 201 to 7500 nM for the second.

First: O=C(O)CCC(=O)N(C1CCC1)[C@@H]1c2ccc(Cl)cc2N(C(=O)c2cc(F)cc(F)c2)[C@@H]2CCC[C@@H]21 (single isomer, unassigned) [17CP, 4-[[cis,cis-6-chloro-4-(3,5-difluorobenzoyl)-2,3,3a,4,9,9a-hexahydro-1H-cyclopenta[b]quinolin-9-yl]cyclobutylamino]-4-oxobutanoic acid]
Second: O=C(O)COC(=O)N(C1CC1)[C@H]1c2cc(F)ccc2N(C(=O)OCc2ccccc2)[C@H]2CCC[C@H]21 (single isomer, unassigned) [32F]
The Ki of the first is higher: 5.1 to 20 nM for the first, 1 to 5 nM for the second. The second binds more tightly here.
